Results from PubChem BioAssay AID504832 (National Center for Advancing Translational Sciences (NCATS), 2011).
“And” between values parts separate entries of the source, which are not always exact repeats. Equal values may be shown once. The whole screen tested about 310,000 compounds, of which about 18,000 (5.8%) were called active. This list was built around the results that the source calls inconclusive (neither active nor inactive); the mix of calls is not that of the screen. The call rests on the fitted dose curve; in most records, active means well fitted inhibition curve with a large enough effect; inconclusive means small, poorly fitted or top-dose-only effect, or another doubt; inactive means no such curve, though single readings can be large or run the other way. No potency is given beside an inconclusive call; the fits are too rough. A structure can be active in one record and inactive in another.
Potency means the concentration at half of the fitted maximal effect; tags describe the fitted curve by direction and shape.

Experiment: Primary qHTS for delayed death inhibitors of the malarial parasite plastid, 48 hour incubation
Settings: P. falciparum luciferase growth in erythrocytes; series mostly up to 28.7 µM
Method in brief: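 A one-generation exposure of luciferase-tagged malaria parasites in RPMI 1640/Albumax erythrocyte culture, 37 C and 5% CO2. Inhibition is inferred from decreased luminescence after adding detection reagent.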
For `O=C1CC(NN2CCCCC2)C(=O)N1c1ccccc1` (configuration not stated), the Potency was “inactive”.
With `O=C(CCc1ccc(Oc2cc([N+](=O)[O-])cc([N+](=O)[O-])c2)cc1)Nc1cccc(Cl)c1` the Potency was “inactive”.
With `Cc1ccc(N=Cc2nc(-c3ccc(C)cc3)oc2O)cc1` the Potency was “inactive”.
With `COc1ccc(Cl)cc1NC(=O)CSc1nc2ccsc2c(=O)n1CC1CCC(C(=O)O)CC1` (configuration not stated) the Potency was inconclusive [inhibitor, single point].
With `O=C(O)CCc1ccc(S(=O)(=O)Nc2ccc(OCc3ccccc3)cc2)cc1` the Potency was “inactive”.
In the case of `CC1(C)O[C@@H]2C[C@H]3[C@@H]4C[C@H](F)C5=CC(=O)C=C[C@]5(C)[C@@]4(F)[C@@H](O)C[C@]3(C)[C@]2(C(=O)CO)O1`, the Potency is reported as inconclusive [inhibitor, partial curve].
With `CC1=CC(C)(C)N2C(=O)C3(N=C(N)NC(Nc4ccccc4)=N3)c3cc(C)cc1c32` (configuration not stated) the Potency was inconclusive [inhibitor, partial curve].
With `COc1ccc(CCNC(=O)CC(NS(=O)(=O)c2ccc(NC(C)=O)cc2)C(C)C)cc1OC` (configuration not stated) the Potency was “inactive”.
For `CC(C)(C)Cc1nnc(NC(=O)c2ccco2)s1`, the Potency was “inactive”.
For `CC(C)(C)NC(=O)Cn1ccc(=N)c2ccccc21`, the Potency was inconclusive [inhibitor, partial curve, poor fit].
For `CCOc1ccc(NC(=O)COc2coc(CN3CCc4ccccc4C3)cc2=O)cc1`, the Potency was inconclusive [inhibitor, partial curve].
For `CN1CCCC(OC(=O)c2ccc(Cl)cc2)C1` (configuration not stated), the Potency was “inactive”.
In the case of `Cn1cccc1C(=O)OCC(=O)N1c2ccccc2NC(=O)C1(C)C`, the Potency is reported as “inactive”.
With `CC1CCN(Cc2c(C(=O)N/N=C/c3cccc(C(F)(F)F)c3)nnn2-c2nonc2N)CC1` the Potency was inconclusive [inhibitor, single point].
For `O=C(CCNS(=O)(=O)c1ccccc1C(F)(F)F)N1CCN(c2ccccc2O)CC1`, the Potency was inconclusive [inhibitor, partial curve].
In the case of `N#CC1=C(N)Oc2ccc3ccccc3c2C1c1cccnc1` (configuration not stated), the Potency is reported as “inactive”.
In the case of `COc1cccc(NC(=O)C(OC(=O)/C=C/c2ccc3c(c2)OCO3)c2ccccc2)c1` (configuration not stated), the Potency is reported as inconclusive [inhibitor, single point].
With `CCOC(=O)c1c(CSc2ccc(C)cc2)oc2ccc(O)cc12` the Potency was inconclusive [inhibitor, single point].
For `Cc1cc(C)c(S(=O)(=O)N2CCOC2CNC(=O)C(=O)NCCCN2CCOCC2)c(C)c1` (configuration not stated), the Potency was “inactive”.
With `O=C1CC2(CCN(C(=O)C(=O)c3c[nH]c4ccccc34)CC2)Oc2ccccc21` the Potency was inconclusive [inhibitor, partial curve, poor fit].
In the case of `Cc1ccc(Oc2ccccc2NC(=O)C2=COCCO2)cc1`, the Potency is reported as inconclusive [inhibitor, single point].
For `Cc1nc2sc(C(c3cccs3)N3CCN(C(=O)c4ccco4)CC3)c(O)n2n1` (configuration not stated), the Potency was “inactive”.
For `CC(C)C(=O)Nc1nnc(SCC(=O)NC2CC2)s1`, the Potency was “inactive”.
In the case of `COc1ccc(C)cc1Nc1n[n+](-c2ccccc2)c(-c2cc([N+](=O)[O-])cc(OC)c2O)s1`, the Potency is reported as inconclusive [inhibitor, single point].
For `O=C(Cn1c2[n+](c3ccc(C(F)(F)F)cc31)CCCCC2)c1ccc2c(c1)OCCO2`, the Potency was inconclusive [inhibitor, partial curve, poor fit].
In the case of `CC(C)(C)C(=O)N1CCC[C@H]1C(O)(c1ccccc1)c1ccccc1`, the Potency is reported as inconclusive [inhibitor, partial curve].
With `CC1Cc2ccccc2N1S(=O)(=O)c1cnc(Cl)c(Cl)c1` (configuration not stated) the Potency was inconclusive [inhibitor, single point].
With `O=C(COC(=O)CNS(=O)(=O)c1cccc(Br)c1)Nc1ccccc1Sc1ccccc1` the Potency was “inactive”.
With `COc1cc(C(=O)NCC(=O)N2CCN(S(=O)(=O)c3ccccc3)CC2)cc(OC)c1OC` the Potency was inconclusive [inhibitor, partial curve, poor fit].
In the case of `CC1=C(C(=O)OCc2ccccc2)C(c2ccccc2)NC(=O)N1CCCC(=O)O` (configuration not stated), the Potency is reported as inconclusive [inhibitor, partial curve, poor fit].
In the case of `O=C(CSc1nnc(-c2ccco2)c(-c2ccco2)n1)Nc1ccccc1`, the Potency is reported as “inactive”.
With `COc1cc(OC)cc(C(=O)N2CCN(S(=O)(=O)c3ccc(Cl)s3)CC2)c1` the Potency was inconclusive [inhibitor, single point].
With `O=c1[nH]c(=O)n(Cc2ccccc2)c2nc(-c3ccco3)cc(C(F)(F)F)c12` the Potency was inconclusive [inhibitor, partial curve, poor fit].
For `CC1Cc2ccccc2N1C(=O)CSc1nnc(-c2ccc(S(=O)(=O)N3CCCC3)cc2)n1C` (configuration not stated), the Potency was inconclusive [inhibitor, single point].
In the case of `OCCNCc1cc(Br)ccc1OCc1ccccc1Cl`, the Potency is reported as inconclusive [inhibitor, single point].
With `CCN(CC)c1ccc(S(=O)(=O)N2CCOCC2)cc1NC(=O)CN1CCc2ccccc2C1` the Potency was active: 10.4 µM.
With `O=C(CN1CCCc2ccccc21)Nc1ccccc1[N+](=O)[O-]` the Potency was inconclusive [inhibitor, full curve, poor fit].
In the case of `CCOC(=O)C1CCCN(c2c(NCc3ccco3)c(=O)c2=O)C1` (configuration not stated), the Potency is reported as “inactive”.
In the case of `CCCCc1ccc(CC(=O)Nc2cc(S(=O)(=O)N3CCOCC3)ccc2O)cc1`, the Potency is reported as inconclusive [inhibitor, single point].
In the case of `COc1ccccc1C(=O)Nc1ccc(S(=O)(=O)N2CCCCC2c2cccnc2)cc1` (configuration not stated), the Potency is reported as inconclusive [inhibitor, partial curve, poor fit].
For `CC(C)c1ccccc1OCC(O)CN(CC(O)COc1cccc2ccccc12)C(C)C` (configuration not stated), the Potency was active: 1.65 µM.
In the case of `Cc1ccc(C2(CC(=O)Nc3nccs3)CCOC(C(C)C)C2)cc1` (configuration not stated), the Potency is reported as inconclusive [inhibitor, partial curve, poor fit].
For `COc1ccc(-c2c(C#Cc3ccccc3)c3ccccc3n2C)cc1`, the Potency was inconclusive [inhibitor, partial curve, poor fit].
In the case of `Nc1c(C(=O)Nc2ccc(F)cc2)sc(=S)n1-c1ccccc1F`, the Potency is reported as “inactive”.
For `CCc1nnc(NS(=O)(=O)c2ccc(NC(=O)c3ccccc3)cc2)s1`, the Potency was inconclusive [inhibitor, full curve].
With `O=C(NCCCN1CCCC1=O)c1cc2c(s1)CCCCC2` the Potency was “inactive”.
With `CCOC(=O)N1CCN(C(=O)COc2ccc(Br)cc2Cl)CC1` the Potency was inconclusive [inhibitor, partial curve, poor fit].
For `CN(C(=O)CN(CCO)CC(=O)N(C)C(C)(C)Cc1ccccc1)C(C)(C)Cc1ccccc1`, the Potency was “inactive and active: 9.28 µM”.
For `O=c1c2oc3ccccc3c2[nH]c(=S)n1-c1ccc(F)cc1`, the Potency was “inactive”.
In the case of `Cc1cc(C)c(NC(=O)c2ccccc2CCc2ccccc2)c(C)c1`, the Potency is reported as inconclusive [inhibitor, single point].
For `O=C(NNC(=O)c1cccc2ccccc12)c1ccccc1O`, the Potency was inconclusive [inhibitor, single point].
For `CCCN1C(=O)C(Cc2nc3ccccc3c(=O)n2C)c2ccccc21` (configuration not stated), the Potency was inconclusive [inhibitor, full curve, poor fit].
With `Cc1oc(-c2cc3c(cc2Cl)OCO3)nc1CN1CCCC1c1ccc(F)cc1` (configuration not stated) the Potency was inconclusive [inhibitor, partial curve].
In the case of `Cn1c(SCC(=O)NC2CCCCC2)nnc1-c1cccc(N)c1`, the Potency is reported as “inactive”.
For `CCCc1cc(C(=O)OCC(=O)N2CCN(c3ccc(OC)cc3)CC2)sc1C`, the Potency was inconclusive [inhibitor, single point].
With `CCCc1nc(SCC(=O)NNC(=O)C2CCCCC2)c2ccccc2n1` the Potency was inconclusive [inhibitor, single point].
With `CC(=O)c1c(C)[nH]c(C(=O)N2CCN(S(=O)(=O)c3ccc(C)cc3C)CC2)c1C` the Potency was inconclusive [inhibitor, single point].
In the case of `Cc1ccc(S(=O)(=O)Nc2cccc(C(=O)NCCCN3CCCC3=O)c2)cc1F`, the Potency is reported as inconclusive [inhibitor, single point].
For `Cc1c(/C=N/NC(=O)c2ccc(O)cc2)c2ccccn2c1C(=O)c1ccc(F)cc1`, the Potency was active: 4.15 µM.
In the case of `O=C(NCCOc1ccccc1)C(c1ccccc1)c1ccccc1`, the Potency is reported as inconclusive [inhibitor, single point].
In the case of `O=S(=O)(Cc1ccccc1)Oc1ccccc1`, the Potency is reported as “inactive”.
With `COc1cccc(C(=O)N2CCN(C(=O)c3ccc(-c4ccccc4)cc3)CC2)c1OC` the Potency was inconclusive [inhibitor, partial curve].
In the case of `Cc1ccc(C(=O)NC(C)(COc2nonc2C)COc2nonc2C)cc1`, the Potency is reported as active: 11.7 µM.
In the case of `O=C1C(c2ccc(F)cc2)N(Cc2ccc3c(c2)OCO3)C(=O)CN1C1CCCC1` (configuration not stated), the Potency is reported as inconclusive [inhibitor, partial curve, poor fit].
In the case of `COc1ccc(CNC(=O)CN(C2CCCCC2)S(C)(=O)=O)cc1`, the Potency is reported as “inactive”.
For `Cn1nc(C(F)(F)F)c(C#N)c1N1CCN(c2ccccc2)CC1`, the Potency was inconclusive [inhibitor, single point].
For `COc1ccccc1-n1c(C)nnc1SCC(=O)Nc1cc(C)cc(C)c1`, the Potency was inconclusive [inhibitor, partial curve, poor fit].
